# Assay results taken from the supplement of paper PMC10126150.
# Values marked as one replicate rest on one cluster of the flow cell; about a third of the high ones do not repeat.
# Tested on: ATP
# Assay: switch fluorescence ratio, 500 uM ATP over buffer (Cy3 cluster intensity, sum of 5 cycles each) (fold (ratio)); higher = stronger signal-on switching upon ATP binding; sequences stand for … in TCGTCGGCAGCGTCAGATGTGTATAAGAGACAGTTTTTTTTTTTTTTTTTTTTTTTTT…TC
# Settings: aptamer strand: ATP DNA aptamer (quencher-CACCTGGGGGAGTATTGCGGAGGAAGG + anchor), 100 nM annealed; ATP concentration: 500 uM; one replicate
# In short: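 Cy3-labelled switching-strand clusters on a modified Illumina MiSeq flow-cell were annealed to 100 nM quencher-labelled ATP aptamer, imaged in selection buffer, then imaged after 15 min with 500 uM ATP at 22 °C. Five buffer/ATP cycles ran, with NaOH stripping and re-annealing between them. The fluorescence ratio is summed target-cycle over summed buffer-cycle Cy3 intensity per cluster, averaged per switch-domain sequence. Clusters outside 100-1000 RFU were excluded.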
# 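Note: ATP exposure 15 min at 22 °C before imaging.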
row,Sequence,switch fluorescence ratio
1,GGGCTGCATA,0.986
2,GGGCTTCAGC,0.978
3,GGGCTTCGAG,0.965
4,GGGCTTGCCG,1.01
5,GGGCTTGGCA,1
6,GGGCTTGGTG,1.06
7,GGGGAAACCC,1.05
8,GGGGACGCGT,1.07
9,GGGGACTCTG,0.991
10,GGGGATAATG,0.994
11,GGGGATCACG,1.01
12,GGGGATTGT,0.976
13,GGGGCATTA,1.05
14,GGGGCCATGT,0.995
15,GGGGCCTGCG,1.02
16,GGGGCGAGAA,1.02
17,GGGGCGGAAC,1.08
18,GGGGCGGGCG,1.09
19,GGGGCTAAA,0.922
20,GGGGCTATAC,4.36
21,GGGGCTCCTA,0.97
22,GGGGCTGAAC,1.04
23,GGGGCTGCCG,1.03
24,GGGGGATAAT,1.03
25,GGGGGGCCCC,1.04
26,GGGGGGCTAC,1.11

row,Sequence,switch fluorescence ratio
1,GGGGGGTC,1.01
2,GGGGGTGC,1.02
3,GGGGGTGTGC,1.04
4,GGGGTAGTC,0.948
5,GGGGTCAGCT,0.982
6,GGGGTCCGGC,0.994
7,GGGGTCGACA,0.919
8,GGGGTCGACT,1.08
9,GGGGTCGCCA,0.995
10,GGGGTGACTC,0.973
11,GGGGTGCCCT,0.978
12,GGGGTGGTAC,1.02
13,GGGGTTCGAT,1.01
14,GGGTAACCAA,0.993
15,GGGTAATAGT,0.989
16,GGGTAATGGA,1.05
17,GGGTAGACCT,1.16
18,GGGTAGAT,0.991
19,GGGTAGATAA,1.01
20,GGGTAGCCTT,0.983
21,GGGTAGTCAT,0.998
22,GGGTCAGG,1.05
23,GGGTCCAGA,0.98
24,GGGTCCAGCG,1.03
25,GGGTCCGGTA,0.988
26,GGGTCCGTCC,0.994

row,Sequence,switch fluorescence ratio
1,GGGTCGAATG,0.98
2,GGGTCGCCCG,0.942
3,GGGTCGCTCA,0.979
4,GGGTCGGGCT,0.951
5,GGGTCGTGTA,1.06
6,GGGTCTCTGG,0.965
7,GGGTCTGCAA,2.41
8,GGGTCTGGGC,1.02
9,GGGTCTTATA,0.971
10,GGGTCTTGTT,1
11,GGGTGAATAG,1.07
12,GGGTGAGCCA,0.983
13,GGGTGAGGGC,1.04
14,GGGTGATGCC,1.05
15,GGGTGATTTG,1.01
16,GGGTGCAAAT,0.968
17,GGGTGCCATT,0.991
18,GGGTGCTGAC,0.956
19,GGGTGGAGTC,0.953
20,GGGTGGCGGG,0.924
21,GGGTGGCTTA,0.984
22,GGGTGGTCCT,0.966
23,GGGTGTCTTA,1.01
24,GGGTGTGTCA,0.975
25,GGGTGTTAAA,0.953
26,GGGTGTTATG,0.985

row,Sequence,switch fluorescence ratio
1,GGGTGTTCGA,1.03
2,GGGTGTTGT,0.949
3,GGGTTAAAT,1.01
4,GGGTTATGG,0.99
5,GGGTTCAAAA,1.01
6,GGGTTCAACA,0.975
7,GGGTTCATCT,0.996
8,GGGTTCCTTC,1.03
9,GGGTTGCAGA,0.977
10,GGGTTGCGGG,1.03
11,GGGTTGGCA,1.02
12,GGGTTGTGCG,1.06
13,GGGTTTAAGC,0.99
14,GGGTTTACTC,1.03
15,GGGTTTATCG,0.968
16,GGTAAACGGC,1.02
17,GGTAAAGAAT,0.999
18,GGTAACATAC,1.2
19,GGTAACATTA,0.95
20,GGTAACGATC,0.997
21,GGTAACGGAC,1.33
22,GGTAACTAGC,0.94
23,GGTAAGCCAA,0.981
24,GGTAAGGCAA,1.08
25,GGTACCGCAT,1.82
26,GGTACCGGTG,1.02

row,Sequence,switch fluorescence ratio
1,GGTACGGGGC,1.02
2,GGTACGTCGC,1.01
3,GGTACTATTG,0.993
4,GGTACTGAGG,1.08
5,GGTAGAAAAC,1.1
6,GGTAGACAAA,0.995
7,GGTAGACTGC,1.05
8,GGTAGAGCAG,0.996
9,GGTAGCGCAT,1.05
10,GGTAGCTAGG,0.967
11,GGTAGGACCG,0.894
12,GGTAGGTCGA,0.992
13,GGTAGTAGGG,0.943
14,GGTAGTGCGA,1
15,GGTAGTTATG,0.965
16,GGTATACTTC,1.28
17,GGTATCATAT,0.935
18,GGTATCCATC,1
19,GGTATCGGG,0.952
20,GGTATCGGGA,1.02
21,GGTATCGTGG,0.941
22,GGTATCTGAA,1.02
23,GGTATCTGAC,1.08
24,GGTATCTTTT,0.963
25,GGTATTCCTG,1.05
26,GGTATTCTTA,0.986

row,Sequence,switch fluorescence ratio
1,GGTATTTAAC,1.02
2,GGTCAAGTAC,1.17
3,GGTCACACGG,1.01
4,GGTCAGACGG,0.98
5,GGTCAGATAA,0.994
6,GGTCAGTGTA,0.996
7,GGTCATGGTT,0.992
8,GGTCCAACCT,1.2
9,GGTCCACGGG,1.01
10,GGTCCAGTTG,1.04
11,GGTCCATCCT,0.984
12,GGTCCATCGG,0.965
13,GGTCCCATCT,0.965
14,GGTCCCTAGG,1.21
15,GGTCCGCAAG,4.5
16,GGTCGAAGG,0.971
17,GGTCGAAGGT,0.996
18,GGTCGACTGG,1
19,GGTCGCGGGA,1.02
20,GGTCGCTAAG,0.983
21,GGTCGCTGGA,1.24
22,GGTCGGCTGA,0.967
23,GGTCGGTTGT,0.963
24,GGTCTAGCAA,1.48
25,GGTCTATATG,0.984
26,GGTCTATGCC,1.01

row,Sequence,switch fluorescence ratio
1,GGTCTCCAAC,1.01
2,GGTCTCTGTA,1.01
3,GGTCTGACAC,0.966
4,GGTCTGAGAA,0.997
5,GGTCTGCAGA,1.02
6,GGTCTGCATC,1.27
7,GGTCTGTGGA,1.01
8,GGTCTTAGCT,1.03
9,GGTCTTCCTA,0.971
10,GGTCTTGATC,1.03
11,GGTGAAAAAT,1.03
12,GGTGAATCAC,1.04
13,GGTGACTACG,1.01
14,GGTGAGCAAT,3.32
15,GGTGATCATG,0.99
16,GGTGATGACT,1.01
17,GGTGATGGTA,0.997
18,GGTGATGTA,0.968
19,GGTGATTGTT,1.05
20,GGTGCACAGG,1.19
21,GGTGCACCAG,0.976
22,GGTGCAGCA,0.975
23,GGTGCATTTT,1.04
24,GGTGCCCCCC,1.05
25,GGTGCCGCTT,1.01
26,GGTGCCTAT,0.992

row,Sequence,switch fluorescence ratio
1,GGTGCCTTTT,0.98
2,GGTGCGACGT,1.03
3,GGTGCGAGCT,0.988
4,GGTGCGGCCG,1.02
5,GGTGCGGGCC,0.926
6,GGTGCGGGTC,1.02
7,GGTGCGTGTA,1.18
8,GGTGCTCTAC,1.05
9,GGTGCTGAAA,0.993
10,GGTGCTGATT,0.972
11,GGTGCTTCGC,0.938
12,GGTGGAACTG,0.975
13,GGTGGAGGTA,0.989
14,GGTGGCCAA,0.952
15,GGTGGCCAGT,0.979
16,GGTGGGAGG,1
17,GGTGGGTAAG,1.01
18,GGTGGTCACT,1.02
19,GGTGGTCCGT,1.03
